{"source": "the supplement of paper PMC10126150", "note": "Sequences with one replicate were seen in a single cluster, so their values are uncertain.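 Further: ATP exposure 15 min at 22 °C before imaging.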"}
{"test_system": "ATP", "test": "switch fluorescence ratio, 500 uM ATP over buffer (Cy3 cluster intensity, sum of 5 cycles each) (fold (ratio)); higher = stronger signal-on switching upon ATP binding; sequences stand for … in TCGTCGGCAGCGTCAGATGTGTATAAGAGACAGTTTTTTTTTTTTTTTTTTTTTTTTT…TC", "details": "aptamer strand: ATP DNA aptamer (quencher-CACCTGGGGGAGTATTGCGGAGGAAGG + anchor), 100 nM annealed; ATP concentration: 500 uM; one replicate", "how_it_was_run": "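The quencher-labelled ATP aptamer, at 100 nM, was annealed to Cy3-labelled switching-strand clusters on a modified Illumina MiSeq flow-cell. The clusters were imaged in selection buffer, then after 15 min with 500 uM ATP at 22 °C, and this buffer/ATP cycle ran five times with NaOH stripping and re-annealing between runs. Per-cluster fluorescence ratios, summed target-cycle over summed buffer-cycle Cy3 intensity, were averaged per switch-domain sequence. Clusters outside 100-1000 RFU were excluded.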"}
{"sequence": "GTGGTGCTAC", "switch fluorescence ratio": 1}
{"sequence": "GTGGTGGGCA", "switch fluorescence ratio": 1}
{"sequence": "GTGGTGGTCT", "switch fluorescence ratio": 1.04}
{"sequence": "GTGGTGTGC", "switch fluorescence ratio": 1.01}
{"sequence": "GTGGTTATG", "switch fluorescence ratio": 0.989}
{"sequence": "GTGGTTGTC", "switch fluorescence ratio": 1}
{"sequence": "GTGTACATCT", "switch fluorescence ratio": 1.01}
{"sequence": "GTGTACCGGG", "switch fluorescence ratio": 0.985}
{"sequence": "GTGTAGTACG", "switch fluorescence ratio": 0.976}
{"sequence": "GTGTATCTT", "switch fluorescence ratio": 0.994}
{"sequence": "GTGTATTAGA", "switch fluorescence ratio": 0.979}
{"sequence": "GTGTCACACA", "switch fluorescence ratio": 1.06}
{"sequence": "GTGTCAGTTT", "switch fluorescence ratio": 1.01}
{"sequence": "GTGTCCTTTG", "switch fluorescence ratio": 0.997}
{"sequence": "GTGTCTTGGG", "switch fluorescence ratio": 0.925}
{"sequence": "GTGTGAAGCT", "switch fluorescence ratio": 1.03}
{"sequence": "GTGTGGCAAA", "switch fluorescence ratio": 1.62}
{"sequence": "GTGTGGCCAG", "switch fluorescence ratio": 1.01}
{"sequence": "GTGTGGGGAA", "switch fluorescence ratio": 0.979}
{"sequence": "GTGTTCACCG", "switch fluorescence ratio": 0.98}
{"sequence": "GTGTTCGCCT", "switch fluorescence ratio": 1.02}
{"sequence": "GTGTTGGACG", "switch fluorescence ratio": 1.02}
{"sequence": "GTGTTGTGGC", "switch fluorescence ratio": 0.963}
{"sequence": "GTGTTTGCGT", "switch fluorescence ratio": 0.993}
{"sequence": "GTGTTTGCTT", "switch fluorescence ratio": 1.01}
{"sequence": "GTGTTTGTTT", "switch fluorescence ratio": 0.958}
{"sequence": "GTTAAACGAA", "switch fluorescence ratio": 0.978}
{"sequence": "GTTAACGCGC", "switch fluorescence ratio": 1.02}
{"sequence": "GTTAAGGGAG", "switch fluorescence ratio": 1.01}
{"sequence": "GTTAATAGTT", "switch fluorescence ratio": 1}
{"sequence": "GTTAATGGTT", "switch fluorescence ratio": 1.05}
{"sequence": "GTTAATTT", "switch fluorescence ratio": 0.994}
{"sequence": "GTTAATTTTG", "switch fluorescence ratio": 0.989}
{"sequence": "GTTACAGCGA", "switch fluorescence ratio": 1.05}
{"sequence": "GTTACATTTG", "switch fluorescence ratio": 1.01}
{"sequence": "GTTACCAGGC", "switch fluorescence ratio": 1.02}
{"sequence": "GTTACGACAA", "switch fluorescence ratio": 1.06}
{"sequence": "GTTACGTTGC", "switch fluorescence ratio": 1.04}
{"sequence": "GTTACTCTTA", "switch fluorescence ratio": 1.05}
{"sequence": "GTTACTGAAG", "switch fluorescence ratio": 0.998}
{"sequence": "GTTACTTCGG", "switch fluorescence ratio": 1.06}
{"sequence": "GTTAGAGCTA", "switch fluorescence ratio": 1.03}
{"sequence": "GTTAGAGGAC", "switch fluorescence ratio": 1.03}
{"sequence": "GTTAGCAGCA", "switch fluorescence ratio": 1.02}
{"sequence": "GTTAGGATG", "switch fluorescence ratio": 0.965}
{"sequence": "GTTAGGGTGA", "switch fluorescence ratio": 1.06}
{"sequence": "GTTAGGTCCT", "switch fluorescence ratio": 1.03}
{"sequence": "GTTAGTACTT", "switch fluorescence ratio": 1.01}
{"sequence": "GTTAGTAGAA", "switch fluorescence ratio": 0.958}
{"sequence": "GTTAGTAGAG", "switch fluorescence ratio": 1}
{"sequence": "GTTAGTCAAG", "switch fluorescence ratio": 0.985}
{"sequence": "GTTAGTTAAT", "switch fluorescence ratio": 1.01}
{"sequence": "GTTATACGGC", "switch fluorescence ratio": 0.975}
{"sequence": "GTTATACTTG", "switch fluorescence ratio": 0.986}
{"sequence": "GTTATATAA", "switch fluorescence ratio": 1.02}
{"sequence": "GTTATATTGC", "switch fluorescence ratio": 1.06}
{"sequence": "GTTATCATGA", "switch fluorescence ratio": 0.986}
{"sequence": "GTTATCCTGA", "switch fluorescence ratio": 1.01}
{"sequence": "GTTATGGGCG", "switch fluorescence ratio": 0.987}
{"sequence": "GTTATGTGAA", "switch fluorescence ratio": 1.01}
{"sequence": "GTTATTCGAT", "switch fluorescence ratio": 1.05}
{"sequence": "GTTATTCGGA", "switch fluorescence ratio": 0.985}
{"sequence": "GTTATTGAAC", "switch fluorescence ratio": 1}
{"sequence": "GTTCAAATTG", "switch fluorescence ratio": 1.02}
{"sequence": "GTTCACACTT", "switch fluorescence ratio": 0.952}
{"sequence": "GTTCACTTCG", "switch fluorescence ratio": 1.02}
{"sequence": "GTTCAGGCAG", "switch fluorescence ratio": 0.986}
{"sequence": "GTTCAGGG", "switch fluorescence ratio": 1.02}
{"sequence": "GTTCAGGGGG", "switch fluorescence ratio": 1.14}
{"sequence": "GTTCAGTAAT", "switch fluorescence ratio": 1.04}
{"sequence": "GTTCATATTT", "switch fluorescence ratio": 0.962}
{"sequence": "GTTCATGGAG", "switch fluorescence ratio": 1.01}
{"sequence": "GTTCATTTAT", "switch fluorescence ratio": 0.974}
{"sequence": "GTTCCAAACT", "switch fluorescence ratio": 1.05}
{"sequence": "GTTCCAGCAA", "switch fluorescence ratio": 2.93}
{"sequence": "GTTCCGAAAT", "switch fluorescence ratio": 1.21}
{"sequence": "GTTCCGAGCT", "switch fluorescence ratio": 2.06}
{"sequence": "GTTCCGGGAT", "switch fluorescence ratio": 1}
{"sequence": "GTTCCGTAGA", "switch fluorescence ratio": 1.13}
{"sequence": "GTTCCTATC", "switch fluorescence ratio": 1}
{"sequence": "GTTCCTGATA", "switch fluorescence ratio": 0.998}
{"sequence": "GTTCGAGCGT", "switch fluorescence ratio": 1.04}
{"sequence": "GTTCGATGTT", "switch fluorescence ratio": 1}
{"sequence": "GTTCGTACTT", "switch fluorescence ratio": 0.972}
{"sequence": "GTTCTGTGAT", "switch fluorescence ratio": 1.03}
{"sequence": "GTTCTTAAGG", "switch fluorescence ratio": 0.96}
{"sequence": "GTTGAAGGCG", "switch fluorescence ratio": 1.01}
{"sequence": "GTTGAAGGGC", "switch fluorescence ratio": 0.979}
{"sequence": "GTTGAATAAG", "switch fluorescence ratio": 1.01}
{"sequence": "GTTGACCGTT", "switch fluorescence ratio": 1.02}
{"sequence": "GTTGACGGGC", "switch fluorescence ratio": 0.984}
{"sequence": "GTTGAGATTT", "switch fluorescence ratio": 0.937}
{"sequence": "GTTGATCGCG", "switch fluorescence ratio": 0.99}
{"sequence": "GTTGATCGGG", "switch fluorescence ratio": 0.971}
{"sequence": "GTTGATGTCT", "switch fluorescence ratio": 0.887}
{"sequence": "GTTGATTCAT", "switch fluorescence ratio": 1}
{"sequence": "GTTGCACTTC", "switch fluorescence ratio": 0.985}
{"sequence": "GTTGCAGCAA", "switch fluorescence ratio": 1.06}
{"sequence": "GTTGCATAG", "switch fluorescence ratio": 1}
{"sequence": "GTTGCATGAG", "switch fluorescence ratio": 1.04}
{"sequence": "GTTGCCCCGA", "switch fluorescence ratio": 1.01}
{"sequence": "GTTGCCTAGT", "switch fluorescence ratio": 0.975}
{"sequence": "GTTGCCTGCG", "switch fluorescence ratio": 1.01}
{"sequence": "GTTGCGAAGC", "switch fluorescence ratio": 1.06}
{"sequence": "GTTGCTCATA", "switch fluorescence ratio": 0.955}
{"sequence": "GTTGCTCGGA", "switch fluorescence ratio": 1.04}
{"sequence": "GTTGCTGAGA", "switch fluorescence ratio": 0.987}
{"sequence": "GTTGCTGGGC", "switch fluorescence ratio": 0.992}
{"sequence": "GTTGCTTGGG", "switch fluorescence ratio": 1}
{"sequence": "GTTGGATATC", "switch fluorescence ratio": 1.02}
{"sequence": "GTTGGATCCT", "switch fluorescence ratio": 1.04}
{"sequence": "GTTGGATCGA", "switch fluorescence ratio": 1.05}
{"sequence": "GTTGGCAAGA", "switch fluorescence ratio": 0.981}
{"sequence": "GTTGGCCAAT", "switch fluorescence ratio": 1.02}
{"sequence": "GTTGGCGTCG", "switch fluorescence ratio": 0.907}
{"sequence": "GTTGGGCAAG", "switch fluorescence ratio": 0.984}
{"sequence": "GTTGGTGCAA", "switch fluorescence ratio": 1.02}
{"sequence": "GTTGTACTCC", "switch fluorescence ratio": 1.45}
{"sequence": "GTTGTATATG", "switch fluorescence ratio": 0.956}
{"sequence": "GTTGTATGGG", "switch fluorescence ratio": 0.949}
{"sequence": "GTTGTCATTT", "switch fluorescence ratio": 1.04}
{"sequence": "GTTGTCCTGA", "switch fluorescence ratio": 1.03}
{"sequence": "GTTGTGGGAG", "switch fluorescence ratio": 0.985}
{"sequence": "GTTGTGGGGC", "switch fluorescence ratio": 0.999}
{"sequence": "GTTGTGTTAC", "switch fluorescence ratio": 1.04}
{"sequence": "GTTGTTAAT", "switch fluorescence ratio": 1.03}
{"sequence": "GTTTAAGCCA", "switch fluorescence ratio": 1.02}
{"sequence": "GTTTAATGTA", "switch fluorescence ratio": 1.03}
{"sequence": "GTTTACATTA", "switch fluorescence ratio": 0.979}
{"sequence": "GTTTACGAGG", "switch fluorescence ratio": 0.995}
{"sequence": "GTTTAGGCAG", "switch fluorescence ratio": 0.993}
{"sequence": "GTTTATGGCT", "switch fluorescence ratio": 1.04}
{"sequence": "GTTTATTAGC", "switch fluorescence ratio": 0.99}
{"sequence": "GTTTCAGGAC", "switch fluorescence ratio": 1.02}
{"sequence": "GTTTCCACGA", "switch fluorescence ratio": 1}
{"sequence": "GTTTCCTAGT", "switch fluorescence ratio": 1.01}
{"sequence": "GTTTCGGCAA", "switch fluorescence ratio": 1.2}
{"sequence": "GTTTCTTGGT", "switch fluorescence ratio": 0.942}
{"sequence": "GTTTGACGAG", "switch fluorescence ratio": 1}
{"sequence": "GTTTGACTCT", "switch fluorescence ratio": 0.992}
{"sequence": "GTTTGCCCAT", "switch fluorescence ratio": 1}
{"sequence": "GTTTGCGATC", "switch fluorescence ratio": 1.11}
{"sequence": "GTTTTAAATT", "switch fluorescence ratio": 0.981}
{"sequence": "GTTTTAACCG", "switch fluorescence ratio": 1.01}
{"sequence": "GTTTTACGGG", "switch fluorescence ratio": 0.998}
{"sequence": "GTTTTAGTTC", "switch fluorescence ratio": 0.97}
{"sequence": "GTTTTATAAG", "switch fluorescence ratio": 0.984}
{"sequence": "GTTTTCCTTA", "switch fluorescence ratio": 1.02}
{"sequence": "GTTTTCGAGT", "switch fluorescence ratio": 1.02}
{"sequence": "GTTTTCTGCG", "switch fluorescence ratio": 0.944}
{"sequence": "GTTTTGCACT", "switch fluorescence ratio": 1.01}
{"sequence": "GTTTTGCGTA", "switch fluorescence ratio": 0.963}
{"sequence": "GTTTTGTGAA", "switch fluorescence ratio": 1}
